# Laboratory results reported in publication PMC10726135.
# The list shows a part of the results. At the low end of the ranking the order means little. Measured with an extract: partners may take part in the binding.
# Biological target: T1, HNF4alpha8 (COS-7 nuclear extract) (UniProt P41235-5)
# T1 sequence: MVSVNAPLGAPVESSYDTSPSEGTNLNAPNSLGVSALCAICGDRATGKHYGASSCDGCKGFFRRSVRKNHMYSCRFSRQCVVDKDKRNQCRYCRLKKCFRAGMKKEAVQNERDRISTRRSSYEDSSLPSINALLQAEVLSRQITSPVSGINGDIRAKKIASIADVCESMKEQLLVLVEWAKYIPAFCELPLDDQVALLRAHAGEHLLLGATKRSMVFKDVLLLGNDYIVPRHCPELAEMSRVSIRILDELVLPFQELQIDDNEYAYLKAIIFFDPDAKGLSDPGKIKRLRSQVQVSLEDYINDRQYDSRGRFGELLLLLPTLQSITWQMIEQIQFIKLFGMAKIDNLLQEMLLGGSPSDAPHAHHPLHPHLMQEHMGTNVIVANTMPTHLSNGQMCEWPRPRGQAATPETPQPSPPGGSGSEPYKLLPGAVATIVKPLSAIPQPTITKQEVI
# Test: protein-binding microarray
# Details: COS-7 nuclear extract on double-stranded Agilent 4x180k PBM; binding buffer, salt, pH and temperature not given; high values mean tight binding; double strand, one strand shown; sequences stand for … in …GCCTAGGGAGATTAGAGTATCGGTCGA
row,Sequence,binding signal (log2 normalized intensity)
1,CTGAAAAATGTCAGCAAAGTGTCAAGTAGA,-0.843
2,GATCCCTGAACTTTGCTCCCACCCTGCAAT,5.45
3,GGCCATTCTGATTTGATAAGATGTGTAAAA,1.22
4,ATCTGCATGGACAGCACTTAGGGTTCAAAG,2.39
5,TATCTTACGCAACTGAAATTGCACTCTTTG,1.13
6,GTTTCGTAATATTTAGGTGTTTACTTACTG,1.37
7,TTTGGGCCAAATATTTATGGCTTGGGTTTA,0.649
8,TGAGCTAAGTCCCAAGGGATAGGCAGGAGT,-1.28
9,TGTTTGTTCTTGCTACCTACTCATTCATAT,0.79
10,CACTAGGACATATATGAGGAAGGGTGTGTA,0.262
11,TCAAAGGTCAGCTCTCCTTTGTCTTCTTGT,2
12,GGTGAGGGATGAGGACTTTGATCAGCAATG,4.69
13,CACCTATGTGGTCAAAACTTTGTTTGAGTT,1.38
14,CATTCATACATTTGCCTGAACTTTAAACTG,4.5
15,AGTTAGCTACACGGGCCTGAAAACTGGAGG,-1.41
16,ACTCCTGATAGCTAGAGAGTTCAAGAAGGG,-1.23
17,GAGGCTCTTATCAGCTGCAGGGATTATCAA,-1.28
18,AAGAAACATTCCAGACAGGAGGATTCCTGA,-1.29
19,GGGTCCAGGTGCTGGGATGATTCCCTTATC,1.3
20,GAATGCAACCACACCAACATGGACTTTGTC,6.59
21,CCCTCCTTAAGACCTAGATGGAATGTTGTG,1.41
22,TCCATATTGCAGACAGCATAGGAAGTGGGG,-1.3
23,AACTTTGTTTGAGTTCCAAAGTCCATGTTC,7.61
24,AGCAGAAAAGCTGTACCAATTATTGCGAGT,-1.32
25,CTCCGCTGAAGTCAATGTCAGCTAGAGGCC,-0.944

row,Sequence,binding signal (log2 normalized intensity)
1,TTTTCCAGCAGCGGATCCAACCTGTTCTTT,0.593
2,TGAACTTTGCCTTGTACACAAAGACATTGC,2.93
3,TGACGGTATGTGAATGCCTGGGCATGGCTG,-1.3
4,CCTTTCTGCCCTTTGAAGCATGTGATCTAC,2.7
5,TCTGATACACTCGCCGTGTGACTGAGGGCT,-1.28
6,GAGCCCCTGTGATACAACGGTTCAAAGGAC,3.13
7,CGGAGAGCAGGGCGTGGACTTCGCTCCGCC,5.75
8,AGCCAGAGGCAGCAAGGTCAAAGTGCGTCC,6.33
9,AACTCACTACAAACGCCTCTAAGCTCTTTC,-1.33
10,GGTCTGTTTGTGAAACAGTGGGCAATATGA,1.18
11,TCAGTTTGGCTCTTATGTCCCTCCTGACCT,3.83
12,TTCCCAGGAATTGGCCTGTGCCTCAATTGC,0.807
13,TTCCTTTCCCTTTATTTAGCCTCACTAAGA,-0.859
14,CCACCCACACTGCAGCAAAACTTTAGGACT,-1.21
15,AAATCCCCAAACTTAAAAGAAGCTACTAGC,-1.36
16,TTTCTAAGAAAGTTCAGCCCTTAGGACCAG,-0.943
17,ATTGGGATGGCAGCTTCATTCCAGCCCCAT,1.28
18,GAGGAAACAAACAGATATGCATTTGTCTCT,-1.38
19,TGTGTGTAGGCATAGGAGAAACACATAAAC,-1.14
20,GTCAGTCTTTGTTCTAGTAAGGCCTTCAAA,0.595
21,TTCACCAAGAGGGAAAAGATGGTCTCTCAC,-0.945
22,TGACCTGCAAGGTTCTCTCTTCTTCCCCTC,2.5
23,GCGGGGCTCAAAGGCGGCCCGGGTGGGGGT,-1.24
24,GAAATCATTCCAGAAAGACAGCTGCATTTG,-1.29
25,CAGCAATAAATACCAAAGCCATGGCTCCAA,-1.44

row,Sequence,binding signal (log2 normalized intensity)
1,CCCCCCACCCCACACACACACAGCATTCCA,5.24
2,ACCCCTGAATAGGTCTTGGAATGTGACGGC,1.5
3,GCAAGGAATTCAACCCTTGTCACTTTCCCT,1.82
4,ATCAAAACCTTCATCTCTCTTTGTTGACAT,1.44
5,CTTTGAAGCATGTGATCTACTCCCTGTTCT,0.566
6,TTCCTGGTATCAGAGTGGAGCCAGATGCAC,-0.591
7,GCAGAGGCTGGGGCCCTCTTCCAGCTGAGA,-1.2
8,GGCCCCCACTAGAGAGACCGTCCCTGGGTA,3.16
9,TATCCCTCCGCCTCCCTCCCCCTTTCTCCG,4.75
10,TGGGAAAAGGCGCATGCATAACCAAACAGA,-0.788
11,TCATATATGCATTTGTCTCAGGTGGGCAGA,1.23
12,TGGGAGAACCTGTGCTTCTGGTTCTGGACT,2.48
13,AATACTTATGATATGAAGCATTGCTTGAGT,0.754
14,GCCCTTCCCCCCTCTGCAGCCTTACCCAGT,4.44
15,AGAAGTAGGATAAGGGTAGGGCCAATCTCT,-1.38
16,GCTCTGGAATCTCTGGATTTCAGGTACACA,0.947
17,ATTATGGTAGGCAGCCTCTGAGATGGACTC,3.96
18,TAGATAACTCCAAGATTAGTGGGAAAGCTA,-1.23
19,CACCCTACCCCCATACTTTATTTAGCTTTA,1.53
20,ACATTCCACTCAGTCTCTTGAAATCCCAAG,-1.21
21,TGTGCTGGATGTTTCCTTTGAACTCTGCAT,2.66
22,CCTCCTCCTCCTTTTTTTTTTCAAGTGTTA,1.34
23,CTCACATGAGCTAGAGCTCGTGTCATCTCT,-1.28
24,CAGATTTAATGAAATACAGTAGACTTTTTT,-0.798
25,GGACTTCGCTCCGCCGCTAGGTGGCGGGCT,2.34

row,Sequence,binding signal (log2 normalized intensity)
1,GTTTTCGCAGCAAGTTACACAAGTAGAATG,0.0517
2,GCAGGACAGTTTTGTGTGTTTAATGTTTTC,1.6
3,GCCCATGCTGGACCCTGGGCTTAGTTGCTC,3.2
4,CTTTTCACAGGAGAGGAGAAAGAGCAATCT,-1.19
5,TTAACGCTAAAGAGGTATCATGAGGTATAT,0.849
6,AGCTGGGAGCTGCCGCAACATTGTCCAGCA,-1.45
7,TGCTGCACTGATAAGAAAGCAAAGTCCAAC,5.11
8,CCCCTGTGCAAACTTTTTCCTTTTCTTATC,0.589
9,GTCTTACCGGGATTTTGTTGGGGAACTTTG,1.83
10,TTTTTTCCCCTCCCTCAGCTCTGCCCAGAC,4.51
11,CTGTAGAAAGACTAAAGTTCAGGAGGGAGG,0.979
12,GTCTTCTGTTTGCAAATGGATGAATTTTAT,1.14
13,TTTGTCCCAAGGAGAATTTCACAAAGGGCA,1.85
14,GAATCCCAGTTCTGATACACTCGCCGTGTG,-0.814
15,AAAGGGAATAACCTTTGAGCTGAGTTCCAC,4.71
16,GTCAGGCTGCTCAGCTGCCTAGAGGCCTGG,-1.35
17,AGTTTTTCTTGCTCTTTACCCCTGCAAGGA,2.66
18,TGGACAACTGTACTTTGGACTGGGGACCTG,6.02
19,AGTTGCTCAGTGTTCCACAGCAAGTAAATT,-1.2
20,TGGGCTGGACTAAGAGTAGCGGTTTCTGCT,-1.35
21,AGTTGCCTGATGACAACTGAATGTGACCTT,5.02
22,CAACCCTTGACCCCAGTAACAAAGGAAAGA,3.82
23,ATTACATGGAAGCCTTACCAGTAGGACCAC,-1.27
24,GGGAAGCTGTGTGAAGTGACTTGCCCTGTT,2.3
25,CTGCCTTTCCCAGATGGATTGATAGACTTA,0.78

row,Sequence,binding signal (log2 normalized intensity)
1,ATCTTATCAGAAACACACCCTTGGGGCTGA,-1.3
2,CACACACACACACATTGCAGTATGCCCCCC,5.33
3,CCGGGCGGCAGCACAAGGCGGTAGCCATGG,-1.25
4,GACCCCATACTTCAGCAATTTCTTAGTAAA,1.38
5,GAGTACACACTGTAAAATTTCATGGCATTG,-0.933
6,GGGTCACGTGGGGCCGGTACAAAAGGCCAA,2.14
7,TTCAAAGGAGGAGGCCTAGGCAGTCCACAG,-1.31
8,AGACATGGACTCTGGGATCTCAGGGTGGAC,2.17
9,CTCGTGGCCTCCACACATTGCCACACTATT,-0.755
10,AAAAGGGAGTTTTCTGCTCTCAACTAGAGA,-1.22
11,CTGCTCCCCGCCTTGGCCTCCCGGAGAGGC,1.03
12,GAAAAAGGTAAGGAGATAAGGTGATAAGGG,-1.36
13,TGCCCTATGTCCTCCAGCTCTTGGGGAACA,0.218
14,GGGACAAAGTTCATCTGGGCTTTAGGTTTG,3.11
15,CAAAGTGTGATTAACAAGCATTTTGTTCCC,0.598
16,GTCCAGTGACGGGTACAAGGAGGCCCCAAC,-0.322
17,AACAGTGAATGTTTCGTAATATTTAGGTGT,1.48
18,CAACAGGTCCAAGGTTCAGAGCCTGGCTGG,3.01
19,GAGGAAAAGCTGTCTACAAACACAGAAGTG,-1.29
20,CAAGGACTGAAAGAACACAGCGCAGCACAC,-1.32
21,CAGGACGCTACCCGCTTGGCGTAGGCAACT,-1.3
22,CCGCCTTCACTCCCCTGACAGCATGTTCGG,0.533
23,TCCTGCTGTTCCTTCAACACACAAGGCCCA,0.459
24,TAGCACTCTGGACTCTGAATCCAGCGATCC,2.56
25,ACAACCTACTCTTTCTCTGATGTCTGCTGA,0.146

row,Sequence,binding signal (log2 normalized intensity)
1,AGTCCTTCTAAAGCAAATTTATAGGCACTA,-1.46
2,TTAACCTCTATTGACCTTCTTATTTGGAGA,2.41
3,GTAACACAGAGGCAGTGGGACAATGAAGCC,-1.29
4,TCTTTGTTCTAGTAAGGCCTTCAAATGATT,0.522
5,GTCACTCAGCCCGAGAAACGATGTGAGGTC,1.51
6,ATACTTTCAGCTAGCTGAGTGAGTAGGTTC,0.882
7,CTATTATGCCTTGACTTCAAATCATACTGA,-0.17
8,CTGCCTCTCTGTGGAATCCTGCTAGCAGCT,-1.19
9,GCCCGTGTGGGCGGGTGCAGCTTCCACCTG,-1.35
10,TGGCGTATGCAGCAGGGCAGCAGCCTGACC,0.823
11,CTTTCTCTGTGTGTATGTGTGTGTACACAT,2.75
12,TCTTGCAAACATTACTGGCACACAGCAGAT,-1.35
13,GAAATGGTGGACTTTGTAGCTCAAACAGTC,3.96
14,AATCCCCTTCAAGTCTGAGATGAAGAGGCC,0.198
15,ATGGATTGGGGGCCATGTCTCAGCCCAAGA,-1.29
16,GGCAGGAAAGGGCCTCTCAGGTCAGGGAAG,-1.08
17,CTTCAGATAGCCTTTGCCTCCACCTTCTCT,0.459
18,AACAACCCTTCGCTAGAGCAAATACAGCAC,-1.26
19,TCTGCCTAGGCATTTGGCTGTCTCAGTGGG,0.378
20,GTGTAACATTCATCTGAGACTAACTGCATT,-1.19
